Measured values from the supplement of paper PMC3334620.
In all, about 33,000 sequences were measured (“E-score (-0.5 to 0.5)”: median about -0.016, highest 2% from about 0.31 on). Some of the results follow.

The sequences below were run against Cst6 (UniProt P40535) (assay: PBM E-score (8-mer binding enrichment) (E-score (-0.5 to 0.5)); higher = stronger / more preferred TF binding; most listed sequences are background and not binding sites). Conditions: protein concentration: 200 nM; construct: GST-DNA-binding domain.
Procedure, shortened: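 Universal all-10-mer Agilent arrays, fresh or stripped once, were converted to double-stranded form by primer extension. GST-tagged yeast transcription factors from PURExpress in vitro transcription/translation, full-length or DNA-binding domain only, were applied at about 100-200 nM and detected with fluorescent anti-GST. After masliner normalisation, the Universal PBM Analysis Suite scored each ungapped eight-base word together with its reverse complement by E-score.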

Sequence	PBM E-score
CAGGAGTA	0.00357
CGGATTTC	-0.077
TCAGGGGA	-0.149
AAATCTCG	0.0859
AGTCCCAT	-0.201
TCTGTCCA	-0.0796
ACGGACGT	0.0857
CAATTGCA	0.068
GATGAGCA	0.221
AATAGAAA	0.188
CACAAAGC	0.0263
GTCCGCAC	0.107
ATGTGCGC	0.0865
CAGTGGAG	0.0339
CGGCTTCA	0.17
AGGCGTAG	-0.168
CGCTCGGC	-0.0281
CCCGACCA	-0.14
ACAAGCAG	-0.195
CACTTGCG	-0.00981
ACATATCC	0.0929
GAGCCTCC	-0.278
TAGATGCA	-0.0484
ACTGTTCC	-0.109
AAGTCCCG	-0.322

Sequence	PBM E-score
AAATTGTC	0.189
ACGAGAAA	0.134
AGCTTTGC	-0.207
AAGTTAAT	0.213
ACGTTACA	0.241
AACAGCGG	0.00438
TCTCGAAA	-0.0502
CGGGCTAG	-0.282
GGTGGAAC	-0.217
TGCGGAAA	-0.0266
CACTAGAG	-0.0532
AGTCGCGG	-0.212
TACATGCA	0.0997
AACGAATC	0.227
ACCGATCA	0.0358
ACTTTGCA	0.0884
CCGTGTTC	0.0724
TACTCAAA	0.243
CCAGCCTA	-0.297
ATTGGTAC	-0.105
ACCCAACT	-0.0923
AACCCCGC	-0.107
AATGCTCG	0.0362
CAAAAACA	0.0377
AATTGTTA	0.159

Sequence	PBM E-score
CAATAAAC	0.062
CCCTTCCA	-0.145
GATTGAAC	0.117
ACGATATC	0.18
CTGTCGCA	-0.146
ATAACGGC	0.147
ATTGCTTA	0.0947
ACCAGAAT	0.0698
CATAAACG	0.196
ACACATCG	-0.0609
GGCGTCAA	0.263
ATTTTGTG	0.236
ACCCGCAT	0.0703
CCACAGCG	-0.029
GCCCGCCA	-0.169
CAGCTTAG	-0.141
ATTTGCAC	0.14
ATACTCAC	0.0698
CGTACATC	-0.0558
ATGAGGGG	-0.208
GAGTAAGC	-0.189
GATTAGAC	-0.0447
GCACATGC	-0.0963
GGTGCTAC	-0.233
CCGGATTA	-0.0178

Sequence	PBM E-score
AGCGGACC	-0.184
CCAACTGC	-0.0842
ACAGCGGA	-0.12
AAGCGGGA	-0.174
CACCGAGA	-0.0382
AACCGCAC	-0.0597
CTCTACAA	0.00585
GGGTCAGA	-0.219
AGATACAA	0.284
CACAATGG	0.15
CATCATTA	0.327
TTATATAA	0.24
GAGCATGC	-0.142
AGCGGCGG	0.177
AGCATATA	0.0146
CGCCCCAG	-0.111
CCTTGATC	-0.0447
ACATGAAG	-0.00917
ACAAGAAC	0.243
CCGCCATC	-0.263
TATCTACA	0.151
GAGGTAAC	0.0786
ACGGGGCT	-0.299
CTAATCAG	0.00595
GTTGATTA	0.219

Sequence	PBM E-score
CAGCACAA	0.178
AAGCCAGC	-0.0119
CTTCTATC	-0.203
CCGGCCTA	-0.0867
CAACCCTA	-0.269
ATAGTCGC	-0.142
ATGTGAGA	0.0561
CGTGGCTC	-0.17
ATTACTCG	0.271
ATACTGTG	-0.0714
ATCATTAC	0.375
CCGCATTC	-0.0624
ACCACTCA	-0.0856
CCTCGCCC	-0.108
CGCGGCCA	0.0955
GTAGCTTA	0.151
CATCCTCC	-0.158
AGAACTTG	0.0129
AATGGCTG	-0.0687
AAATACAC	0.141
CAACTGCA	-0.013
CACGTCTG	0.0582
CAGCTAGG	-0.311
ACGTCACA	0.484
CGATATAG	0.0381

Sequence	PBM E-score
CGGTGAAC	-0.0267
GGGCGACC	-0.368
GCGGAACA	-0.135
GTCGTCCA	-0.114
ACATATGA	0.276
AGGGTTAG	-0.193
CGGACTCC	-0.188
AAGACCGG	-0.187
CCTCAGGC	-0.217
CGATAAAA	0.125
ACCCTTAC	0.0592
AACCTTGC	-0.0316
CTTTCAAC	0.0575
GTGAGCAC	-0.00779
CAGGTGCA	-0.0761
CAACATAA	0.183
CAAATCGG	0.0431
AATGGGAC	-0.175
CACGATCG	0.0279
ATTATGAC	0.394
CGGGACCC	-0.362
CTTGAGGA	-0.15
CTTTGTTA	0.156
CACGCTCG	-0.152
AGCGCCCC	-0.212

Sequence	PBM E-score
ACCCGTCA	0.137
AGTGCAAA	0.143
CGTTATTA	0.086
ACAAGGAC	-0.203
CTCGTCTC	-0.152
AGACCTCC	-0.379
ACGTACGC	0.229
CAAGCATC	-0.0664
ATCTGGTA	-0.00615
GTAAGTTA	0.194
TATATATA	0.315
ATGCATGG	0.0714
AGGGAATA	0.118
CATGCTCC	-0.169
AGTGCGGG	-0.123
AGAACAGA	-0.0648
CTTTTGAC	0.0353
TGGAAAAA	0.183
CGACCAAG	-0.205
AGTACTAG	-0.0462
TATCCGCA	0.209
GAGAATCA	0.0315
ATTCCAGA	0.206
CATGGGGA	-0.00402
GATGTCAA	0.245

Sequence	PBM E-score
CCTACGGA	-0.213
GCCGTTTA	0.233
CGTTTGTA	0.136
GAAGTGGC	-0.0167
ATGTTCAC	-0.0304
AGGCGCTG	0.031
CCGACATC	0.0433
CTCTTCAG	-0.0864
CTGGAAAC	0.0464
GCTACACA	-0.0596
AACGACTC	-0.201
CAGCGCGC	-0.0843
ACCGGCAG	-0.282
CACTTCTG	-0.0466
CATTTTTA	0.0761
AGCTGCTA	-0.112
CACTAATC	0.0524
GCTACGAC	0.0382
CATGAGTC	0.147
TAGAGCCA	-0.149
AATGAATC	-0.0335
CATCCATC	-0.182
GCGTCGAC	0.0915
GTTCTTGA	0.103
CCCTTACA	-0.051

Sequence	PBM E-score
CCGAGTGC	-0.119
AATCCTGA	0.13
CATGTTCA	-0.144
ATTAGTAA	0.222
ATCGTTCG	0.0403
GAGCCCTA	-0.21
CACGAATC	0.175
CGTATACA	0.24
CTATTCCC	-0.143
ATTGGGAA	-0.0713
TGCTTTAA	0.0492
GACGTTCA	0.2
GCGGCCCA	-0.136
CTACATTC	-0.157
GGAAAACC	-0.0924
GCCCGTCA	-0.0953
ATTGTGTA	0.194
AGAGTCAG	-0.119
AGCAGGAG	-0.167
GTGTCGAA	-0.0474
AACAAAGG	-0.0382
CCGACTTA	-0.00423
CCACCACA	-0.154
CCTTGACA	0.087
CTTTTTGA	0.123

Sequence	PBM E-score
ACATATCT	0.164
ACTTAGCC	0.028
CGCTGTTA	-0.0539
AATGTGTG	0.189
AGTGGGTG	0.0423
AACCCTGG	-0.291
AGGTACGA	-0.196
GAAGCCAC	-0.0583
AAACAGCT	-0.112
GAAGCAGA	0.0273
GATGAATA	0.196
CACACTTC	0.0627
CATTGCCG	0.0803
AGTAGACA	0.0104
CCCGTCAA	-0.228
AACCTAAA	0.196
AGATGATA	0.211
TGGAGCAA	0.0233
AGAATAGC	0.0158
ATCCTCGG	-0.048
AGTCGTAC	-0.239
CCCAATAA	0.0337
ACGAGGGG	-0.39
GCGTTGAC	0.195
ATCAGACG	0.0186

Sequence	PBM E-score
ACTGCGGG	-0.0734
AAATGACT	0.0956
GCAGGTTA	-0.238
TACTGCTA	-0.0621
ATCTGCTC	-0.107
AAACACAT	0.106
AGGGCCCT	-0.244
CAACGGCC	-0.183
AAGTGTAA	-0.102
ACTCACTG	0.0658
AACAACAA	0.218
AAACGCGC	-0.023
CGTGTGCA	0.0106
CACCCGTC	0.13
CAAGTGGG	-0.119
ACAGGTAG	-0.114
AGCAAGGA	-0.243
AAAGTCAT	0.131
AGCCATTG	0.0412
AGATCCAC	0.0314
AATGTGAC	0.197
GAGCGGAA	0.0896
CACGAGGG	-0.349
AGGACTAA	-0.0307
CGCGATAG	0.109

Sequence	PBM E-score
AAACGCAC	0.0711
GAGAACTC	-0.209
AACAGCCC	0.0474
ATCGTACG	0.0804
AGTGCCTC	-0.013
AATAGCCA	0.134
GTTGCAAA	0.0995
AATTAATC	0.197
AGGGTCTC	-0.24
CTGCATGC	0.00613
CTCCGCGC	-0.15
GATCTCAC	0.148
CCGACTAA	-0.144
ATCTATGC	4e-05
TCTCGTCA	0.329
AAGATCAA	0.222
GACACTAA	-0.0292
CGTGGAGA	-0.2
ACGATTCG	0.0336
GGCTTAAC	-0.0412
ATGAGCGG	0.03
GAGGCAAC	-0.113
AAGGGATG	-0.131
CGCTGCTA	-0.27
TCCACCGA	-0.102

Sequence	PBM E-score
GTTGGTAA	0.177
ACGTCCAA	0.154
GCTTATAC	0.0687
AGAGAGTA	0.0551
TCTGGAAA	0.125
CCCAGGTA	-0.278
CCCCTCGA	0.00621
CAATGGGC	-0.165
GAGATTGA	0.0292
CATTCCCA	-0.0105
ATGCCGCA	0.353
ACCTGGAA	0.154
AGACGACA	-0.106
ACCATAAG	-0.00358
ATATCTGA	0.237
ACCATTTA	0.205
CTGCGGTA	0.0375
CCAATGCG	-0.0588
GTTGAAGA	0.00973
TTACCTAA	0.238
GAATATTA	0.188
GGGCGTAC	-0.134
CCCAGCTA	-0.2
GCTCATCC	-0.0964
AAACCGCC	0.0699

Sequence	PBM E-score
CGCACGTA	0.103
ACGCCCCC	-0.274
CAGACGTA	0.0968
GACCAAGA	-0.0252
TTCACAAA	0.0753
CAGGGATA	-0.0197
CCCGCGCC	-0.026
AGAACGTA	0.0775
AATTAGCG	0.0582
ACTTCCAG	-0.0948
AGTAGCCG	-0.00111
AGAGTAAT	0.243
TCATTGCA	0.321
TCTCAACA	0.0426
GAACTCGC	0.0267
AGGGACAG	-0.379
CGCCCAAC	-0.203
CAATGCGA	0.136
ACCGCTGG	-0.195
